The target of the experiment is M. tuberculosis R2-2 (Mycobacterium tuberculosis, UniProt P9WH71). Conditions: 15 mM hydroxyurea, 10 min.

As to `NC(=O)NO` [hydroxyurea], the “Tyrosyl radical absorbance band at 408 nm after treatment” value is listed as “abolished”.

Source of the values: patent US5834279A (priority 1997, dated 1998).
